Measurements: the antibiotic and cytotoxicity screens of Wong et al. (2023)
This is one part of the list.

How the values were obtained:
HSkMC = human skeletal muscle cells; assay: cytotoxicity call (relative viability < 0.9); conditions: 10 µM
HepG2 = assay: cytotoxicity call (relative viability < 0.9); conditions: 10 µM
S. aureus RN4220 = assay: growth inhibition call (relative growth <= 0.2); conditions: 50 µM

SMILES: C[C@@H]1CN([C@H](C)CO)C(=O)c2cc(NS(=O)(=O)c3ccccc3)ccc2O[C@@H]1CN(C)CC1CC1
- cytotoxicity call (HSkMC): inactive
- cytotoxicity call (HepG2): inactive
- growth inhibition call (S. aureus RN4220): inactive

SMILES: C[C@@H]1CN([C@@H](C)CO)C(=O)c2cc(NC(=O)Nc3ccc(C(F)(F)F)cc3)ccc2O[C@H]1CN(C)C(=O)Nc1ccccc1
- cytotoxicity call (HSkMC): inactive
- cytotoxicity call (HepG2): inactive
- growth inhibition call (S. aureus RN4220): inactive

SMILES: C[C@@H]1CN([C@@H](C)CO)C(=O)Cc2cc(NS(C)(=O)=O)ccc2O[C@H]1CN(C)S(=O)(=O)c1cn(C)cn1
- cytotoxicity call (HSkMC): inactive
- cytotoxicity call (HepG2): inactive
- growth inhibition call (S. aureus RN4220): inactive

SMILES: CCCNC(=O)N(C)C[C@H]1Oc2cc(-c3ccccc3F)ccc2S(=O)(=O)N([C@H](C)CO)C[C@@H]1C
- cytotoxicity call (HSkMC): inactive
- cytotoxicity call (HepG2): inactive
- growth inhibition call (S. aureus RN4220): inactive

SMILES: C[C@@H]1CN([C@H](C)CO)C(=O)c2cccc(NS(=O)(=O)c3cn(C)cn3)c2O[C@H]1CN(C)S(=O)(=O)c1ccccc1
- cytotoxicity call (HSkMC): inactive
- cytotoxicity call (HepG2): inactive
- growth inhibition call (S. aureus RN4220): inactive

SMILES: C[C@H]1CN([C@@H](C)CO)C(=O)c2cc(NC(=O)Nc3cccc4ccccc34)ccc2O[C@H]1CN(C)CC1CCCCC1
- cytotoxicity call (HSkMC): inactive
- cytotoxicity call (HepG2): active
- growth inhibition call (S. aureus RN4220): inactive

SMILES: C[C@H](CO)N1C[C@H](C)[C@@H](CN(C)C(=O)Cc2ccncc2)Oc2cc(C#CC3(O)CCCC3)ccc2S1(=O)=O
- cytotoxicity call (HSkMC): inactive
- cytotoxicity call (HepG2): inactive
- growth inhibition call (S. aureus RN4220): inactive

SMILES: C[C@H]1CN([C@@H](C)CO)S(=O)(=O)c2ccc(C#Cc3ccc(F)cc3)cc2O[C@H]1CN(C)C(=O)CN(C)C
- cytotoxicity call (HSkMC): inactive
- cytotoxicity call (HepG2): inactive
- growth inhibition call (S. aureus RN4220): active

SMILES: C[C@@H]1CCCCO[C@@H](CN(C)C(=O)C2CCCCC2)[C@H](C)CN([C@@H](C)CO)C(=O)c2cc(NC(=O)Cc3ccccc3)ccc2O1
- cytotoxicity call (HSkMC): inactive
- cytotoxicity call (HepG2): inactive
- growth inhibition call (S. aureus RN4220): inactive

SMILES: C[C@H]1CN([C@@H](C)CO)C(=O)Cc2cc(NC(=O)CCN3CCOCC3)ccc2O[C@@H]1CN(C)Cc1ccc2c(c1)OCO2
- cytotoxicity call (HSkMC): inactive
- cytotoxicity call (HepG2): inactive
- growth inhibition call (S. aureus RN4220): inactive

SMILES: C[C@H](CO)N1C[C@H](C)[C@@H](CN(C)CC2CCCCC2)OCCCC[C@H](C)Oc2ccc(N(C)C)cc2C1=O
- cytotoxicity call (HSkMC): inactive
- cytotoxicity call (HepG2): inactive
- growth inhibition call (S. aureus RN4220): inactive

SMILES: NCCNC1=NS(=O)(=O)c2ccccc21
- cytotoxicity call (HSkMC): inactive
- cytotoxicity call (HepG2): inactive
- growth inhibition call (S. aureus RN4220): inactive

SMILES: Cn1cnc(S(=O)(=O)N2C[C@@H](O)COC[C@@H]3O[C@H](CC(=O)NC4Cc5ccccc5C4)CC[C@H]32)c1
- cytotoxicity call (HSkMC): inactive
- cytotoxicity call (HepG2): inactive
- growth inhibition call (S. aureus RN4220): inactive

SMILES: COc1ccc(NC(=O)N(C)C[C@@H]2Oc3c(NS(C)(=O)=O)cccc3C(=O)N([C@H](C)CO)C[C@H]2C)cc1
- cytotoxicity call (HSkMC): inactive
- cytotoxicity call (HepG2): inactive
- growth inhibition call (S. aureus RN4220): inactive

SMILES: C[C@H](CO)N1C[C@H](C)[C@@H](CN(C)Cc2ccc(C(F)(F)F)cc2)Oc2ccc(NC(=O)Cc3cn(C)c4ccccc34)cc2CC1=O
- cytotoxicity call (HSkMC): inactive
- cytotoxicity call (HepG2): inactive
- growth inhibition call (S. aureus RN4220): inactive

SMILES: Cc1c(C)c2c(c(C)c1OC(=O)CCC(=O)O)CC[C@@](C)(CCC[C@H](C)CCC[C@H](C)CCCC(C)C)O2
- cytotoxicity call (HSkMC): inactive
- cytotoxicity call (HepG2): inactive
- growth inhibition call (S. aureus RN4220): inactive

SMILES: C[C@@H]1CN([C@@H](C)CO)S(=O)(=O)c2ccc(-c3cncnc3)cc2O[C@H]1CN(C)C(=O)NC1CCCC1
- cytotoxicity call (HSkMC): inactive
- cytotoxicity call (HepG2): inactive
- growth inhibition call (S. aureus RN4220): inactive

SMILES: C[C@@H]1CN([C@H](C)CO)C(=O)c2cc(NC(=O)Cc3ccccc3)ccc2O[C@@H](C)CCCCO[C@H]1CN(C)C(=O)C1CCCCC1
- cytotoxicity call (HSkMC): inactive
- cytotoxicity call (HepG2): inactive
- growth inhibition call (S. aureus RN4220): inactive

SMILES: Cc1ccc(S(=O)(=O)N(C)C[C@H]2Oc3ccc(NC(=O)Nc4cccc5ccccc45)cc3C(=O)N([C@@H](C)CO)C[C@@H]2C)cc1
- cytotoxicity call (HSkMC): inactive
- cytotoxicity call (HepG2): inactive
- growth inhibition call (S. aureus RN4220): inactive

SMILES: CC(C)c1ccc2c(c1)C(=O)[C@H](N)CCO2
- cytotoxicity call (HSkMC): inactive
- cytotoxicity call (HepG2): inactive
- growth inhibition call (S. aureus RN4220): inactive

SMILES: C[C@@H]1CN([C@@H](C)CO)C(=O)Cc2cc(NS(=O)(=O)c3cccs3)ccc2O[C@H]1CN(C)S(=O)(=O)c1cn(C)cn1
- cytotoxicity call (HSkMC): inactive
- cytotoxicity call (HepG2): inactive
- growth inhibition call (S. aureus RN4220): inactive

SMILES: CC(C)NC(=O)Nc1ccc2c(c1)C(=O)N([C@H](C)CO)C[C@H](C)[C@H](CN(C)S(=O)(=O)c1cn(C)cn1)O2
- cytotoxicity call (HSkMC): inactive
- cytotoxicity call (HepG2): inactive
- growth inhibition call (S. aureus RN4220): inactive

SMILES: C[C@@H]1CN([C@H](C)CO)C(=O)c2cc(Br)cnc2O[C@@H]1CN(C)C(=O)Nc1ccc(F)cc1
- cytotoxicity call (HSkMC): inactive
- cytotoxicity call (HepG2): inactive
- growth inhibition call (S. aureus RN4220): inactive

SMILES: COc1cccc(NC(=O)C[C@@H]2CC[C@@H]3[C@H](COc4ccc(NC(=O)C5CCOCC5)cc4C(=O)N3C)O2)c1
- cytotoxicity call (HSkMC): inactive
- cytotoxicity call (HepG2): inactive
- growth inhibition call (S. aureus RN4220): inactive

SMILES: Cc1noc(C)c1NC(=O)Nc1ccc2c(c1)C(=O)N([C@@H](C)CO)C[C@H](C)[C@H](CN(C)Cc1ccc(C(=O)Nc3ccccc3N)cc1)O2
- cytotoxicity call (HSkMC): inactive
- cytotoxicity call (HepG2): inactive
- growth inhibition call (S. aureus RN4220): inactive

SMILES: C[C@H]1CCCCO[C@H](CN(C)Cc2ccncc2)[C@@H](C)CN([C@@H](C)CO)C(=O)c2cc(NS(C)(=O)=O)ccc2O1
- cytotoxicity call (HSkMC): inactive
- cytotoxicity call (HepG2): inactive
- growth inhibition call (S. aureus RN4220): inactive

SMILES: Cc1noc(C)c1S(=O)(=O)Nc1ccc2c(c1)CC(=O)N([C@@H](C)CO)C[C@@H](C)[C@@H](CN(C)Cc1ccc(C(=O)O)cc1)O2
- cytotoxicity call (HSkMC): inactive
- cytotoxicity call (HepG2): inactive
- growth inhibition call (S. aureus RN4220): inactive

SMILES: O=C(C[C@H]1CC[C@H]2[C@@H](COC[C@@H](O)CN2C(=O)Nc2ccc(Cl)cc2)O1)NCCc1ccncc1
- cytotoxicity call (HSkMC): inactive
- cytotoxicity call (HepG2): active
- growth inhibition call (S. aureus RN4220): inactive

SMILES: COc1ccc(C#Cc2ccc3c(c2)O[C@H](CN(C)C(C)=O)[C@H](C)CN([C@@H](C)CO)S3(=O)=O)cc1
- cytotoxicity call (HSkMC): inactive
- cytotoxicity call (HepG2): inactive
- growth inhibition call (S. aureus RN4220): inactive

SMILES: C[C@@H]1CCCCO[C@@H](CN(C)S(C)(=O)=O)[C@@H](C)CN([C@H](C)CO)C(=O)c2cc(NS(=O)(=O)c3ccc(F)cc3)ccc2O1
- cytotoxicity call (HSkMC): inactive
- cytotoxicity call (HepG2): inactive
- growth inhibition call (S. aureus RN4220): inactive

SMILES: COc1cc(OC)c2c(=O)c(O)c(-c3ccc(OC)c(OC)c3)oc2c1
- cytotoxicity call (HSkMC): inactive
- cytotoxicity call (HepG2): inactive
- growth inhibition call (S. aureus RN4220): inactive

SMILES: C[C@@H]1CN([C@@H](C)CO)C(=O)Cc2cc(NC(=O)c3ccncc3)ccc2O[C@H]1CN(C)C(=O)NC1CCCCC1
- cytotoxicity call (HSkMC): inactive
- cytotoxicity call (HepG2): inactive
- growth inhibition call (S. aureus RN4220): inactive

SMILES: COc1ccc(S(=O)(=O)N(C)C[C@@H]2Oc3ccc(NC(=O)CCN4CCOCC4)cc3C(=O)N([C@H](C)CO)C[C@H]2C)cc1
- cytotoxicity call (HSkMC): inactive
- cytotoxicity call (HepG2): inactive
- growth inhibition call (S. aureus RN4220): inactive

SMILES: C[C@H](CO)N1C[C@H](C)[C@@H](CN(C)Cc2ccc3c(c2)OCO3)Oc2c(NC(=O)c3cnccn3)cccc2C1=O
- cytotoxicity call (HSkMC): inactive
- cytotoxicity call (HepG2): inactive
- growth inhibition call (S. aureus RN4220): inactive

SMILES: C[C@@H]1CN([C@@H](C)CO)C(=O)Cc2cc(NS(=O)(=O)c3cn(C)cn3)ccc2O[C@H]1CN(C)CC1CCCCC1
- cytotoxicity call (HSkMC): inactive
- cytotoxicity call (HepG2): inactive
- growth inhibition call (S. aureus RN4220): inactive

SMILES: C[C@@H]1CN([C@@H](C)CO)C(=O)Cc2cc(NS(=O)(=O)c3ccccc3)ccc2O[C@H]1CN(C)Cc1ccncc1
- cytotoxicity call (HSkMC): inactive
- cytotoxicity call (HepG2): inactive
- growth inhibition call (S. aureus RN4220): inactive

SMILES: CN(C)CC(=O)N[C@@H]1C=C[C@H](CC(=O)O)O[C@H]1CO
- cytotoxicity call (HSkMC): inactive
- cytotoxicity call (HepG2): inactive
- growth inhibition call (S. aureus RN4220): inactive

SMILES: CN1CCN(C(=O)C[C@@H]2CC[C@H]3[C@H](COc4ccc(NC(=O)c5cscn5)cc4C(=O)N3C)O2)CC1
- cytotoxicity call (HSkMC): inactive
- cytotoxicity call (HepG2): inactive
- growth inhibition call (S. aureus RN4220): inactive

SMILES: C[C@H]1CN([C@@H](C)CO)C(=O)c2cccc(NS(C)(=O)=O)c2O[C@H]1CN(C)S(=O)(=O)c1ccccc1
- cytotoxicity call (HSkMC): inactive
- cytotoxicity call (HepG2): inactive
- growth inhibition call (S. aureus RN4220): inactive

SMILES: Cc1cc(C)n2nc(SCC(=O)O)nc2n1
- cytotoxicity call (HSkMC): inactive
- cytotoxicity call (HepG2): inactive
- growth inhibition call (S. aureus RN4220): inactive

SMILES: N[C@@H](c1ccncc1)c1ccc(Cl)cc1
- cytotoxicity call (HSkMC): inactive
- cytotoxicity call (HepG2): inactive
- growth inhibition call (S. aureus RN4220): inactive
